These results are taken from the supplement of paper PMC7826260.

This is one part of the list. Each Rep nickase domain was tested in vitro on the same pool of single strands at 3 µM enzyme and 37 °C for 1 h; the strands have 90 letters, of which the middle is given. Values are log2 of uncut reads against the no-enzyme pool; the lower, the more was cut; hits are not called. Because reads are shares of a total, they shift together; uncut strands gain when others are lost, and binding without cutting may add a little.

The subject of this test is T1, Rep nickase domain of tomato golden mosaic virus.
T1 sequence (Rep 1-124, printed without the tag): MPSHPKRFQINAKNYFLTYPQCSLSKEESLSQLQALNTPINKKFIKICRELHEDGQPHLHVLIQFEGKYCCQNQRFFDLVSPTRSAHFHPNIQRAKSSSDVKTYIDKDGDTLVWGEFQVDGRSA
Description: uncleaved DNA left, log2 of reads against the no-enzyme library (log2 ratio); higher = less cleavage (more negative = more Rep cleavage of the k-mer); sequences stand for … in CTCGTCCG…ACCGGAGA
As for the experimental part: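 A pool of 90-nt single-stranded DNAs with seven random bases just before the constant AC of the nick site (name = the seven bases) was cut by 3 µM recombinant His6-SUMO-tagged Rep nickase domain (300 nM DNA, 50 mM HEPES pH 8.0, 50 mM NaCl, 1 mM MnCl2, 1 h, 37 °C, three replicates). Uncut DNA was amplified and sequenced.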
For GGGTGTG, the “uncleaved DNA left (log2)” value worked out at 0.119.
For TTTTGCT the value was -0.0851; for TGTATTT, -0.0133; for GGAGTCT, 0.07.
Regarding AAATTAG, the “uncleaved DNA left (log2)” value came out at 0.114.
For the sequence AGCTCCT, the “uncleaved DNA left (log2)” value is -0.0591.
As for GAGCTTC, the “uncleaved DNA left (log2)” value is -0.228.
On to CTAGGTC, for which the “uncleaved DNA left (log2)” value is -0.00743.
With GCGGTCT, the “uncleaved DNA left (log2)” value turned out to be 0.0267.
As to CTTAGAC, the “uncleaved DNA left (log2)” value worked out at 0.0295.
To CAGAGAT belongs 0.0585.
ATATTGA: the “uncleaved DNA left (log2)” value was -0.0304.
In the case of ATAGAAG, the “uncleaved DNA left (log2)” value is 0.0506.
To CGCATGT belongs -0.0486; to GCCATGA, 0.134; to CTATAAC, -0.161.
CTGGACA: the “uncleaved DNA left (log2)” value was found to be 0.156.
For the sequence AGTACGT, the “uncleaved DNA left (log2)” value was -0.063.
As for CCGAAAA, the “uncleaved DNA left (log2)” value came to 0.0535.
In the case of TATTCCT, the “uncleaved DNA left (log2)” value was -0.223.
On to AGATCAC, for which the “uncleaved DNA left (log2)” value is -0.083.
Turning to GTCGTTT, the “uncleaved DNA left (log2)” value was -0.0403.
Regarding TTCTGAC, the “uncleaved DNA left (log2)” value is -0.178.
For TGAATGC, the “uncleaved DNA left (log2)” value was -0.0747.
For ATTATAA the value was 0.0454; for GGGGAAG, 0.179; for TGCATGC, 0.00583.
Consider AGGCAAT, for which the “uncleaved DNA left (log2)” value was 0.0163.
On to AGTAAGT, for which the “uncleaved DNA left (log2)” value is -0.0206.
To CCTCTTA belongs -0.00752; to GGCGGAC, -0.0679; to GGTCCGT, 0.00162.
For ACCCTAA the value was -0.0147.
As for GAATTTT, the “uncleaved DNA left (log2)” value is -3.09.
For the sequence CAGAACG, the “uncleaved DNA left (log2)” value was -0.0848.
To TGTGGAG belongs 0.153.
Turning to ACTTATA, the “uncleaved DNA left (log2)” value was determined as 0.0757.
To TGCAAGC belongs 0.0498.
For CAGTCTA the value was -0.129; for TAGGGCG, 0.0648.
